Among the data in the RNAGym collection of RNA variant scans (doi:10.7554/elife.90254) are self-cleavage values, retold here.

The source gives no read counts; variants with many changes may rest on few reads.

To fix the notation:
B1: LINE1-mini (parent)
chain: GGCAGAGCUCAACACAGCGUGGCAAAGUGGCUGUGGCUAGACUGCC

Variants of B1 are the subject of this data set. In words: self-cleavage, relative activity (ratio to wild type); higher = more cleavage; in vitro, sequencing; the parent is a self-cleaving ribozyme.
As to C3A G7A A25G G33A, the self-cleavage stood at 0.12.

For C8G A11U C23A U32A, the self-cleavage was 0.01. Take G17A A24U G30A: the self-cleavage was 0.21. With C18A G30U G35U, the self-cleavage came to 0.04.

With C10A A12G C13U G36A, the self-cleavage is 0.02.

On to A12C U32C A39G C42A, for which the self-cleavage was found to be 0.02. For C31G A41G C45G, the self-cleavage stood at 0.01. Consider C10G G17A G27C G29A G30C C37A, for which the self-cleavage was 0.01.

Consider A11C U20G G30C C45U, for which the self-cleavage was determined as 0.01. The same measure for G2C G5U G17C: 0.02; for C8A C10G U43A C46G: 0.05; for A6U G17A G44U: 0.02. As for G1A A24U G30A G35U, the self-cleavage was 0.03. Take C13G C15A A16C G17A C18G U38A: the self-cleavage was found to be 0.14. As to C10G C13U C18U G33C, the self-cleavage was 0.03.

As to C8A G21C C37U U38A C45U, the self-cleavage came out at 0.23. Consider C10G G21U U32G A39U C46U, for which the self-cleavage came out at 0.01. In the case of G7A C8U A16C A26U it was 0.11. On to A12C A16U G17A G22A C31G, for which the self-cleavage worked out at 0.01. G1C C15U U34G C42A: the self-cleavage was found to be 0.02. On to G21C U43C C45U, for which the self-cleavage came out at 0.04. The same measure for C8G G17U C18G A26G G33U: 0.1.

Regarding C18U G36A A39C, the self-cleavage came to 0.03. Take G7U A16U C31U: the self-cleavage stood at 0.09. For the variant C10A A39U C42A C45A, the self-cleavage is 0.02. The same measure for G2U U9A A11C G19U G29C: 0. In the case of G21C C31G G35C it was 0.07; in that of C23A G27C C31A C42A, 0.06; in that of G22A C23G G30A G40A, 0.09. For G2A A6U G21U A25C, the self-cleavage worked out at 0.44.

Turning to C10A G36U G40C, the self-cleavage amounted to 0.01. Turning to C10A G36U G40A, the self-cleavage is 0.01. As to A12C C13U G19U, the self-cleavage came to 0.01. As for C15A A26U C45A, the self-cleavage amounted to 0.04.

On to G17C A24G U43C C46G, for which the self-cleavage came to 0.01. As for G7C C10G C23G U28G, the self-cleavage amounted to 0.

For G2U G27U G36U, the self-cleavage was found to be 0.04. In the case of C10A A12C C18G U20C G44U it was 0.01; in that of A12U G22U U34C, 0.04; in that of G1U C3A C10U A12G, 0.05. Regarding A6G G7A C10A G30U, the self-cleavage is 0.01. In the case of G5U G29U U43A it was 0.02; in that of G22C G36U C46A, 0.05; in that of C8A A11U A41U U43G, 0.03.

Consider C10A G29U A41G C46A, for which the self-cleavage amounted to 0.01. As for C18G G22U G27C C45U C46G, the self-cleavage is 0.06. Take G17A U20A A25G U32C U43C C45A: the self-cleavage worked out at 0.01.

For the variant G17C G21C G30A U32G G33U, the self-cleavage worked out at 0.01. With C3U C10U A24C G35U, the self-cleavage came to 0.11. In the case of C3G A6C G22A G40U it was 0.07; in that of G7C U20G A25C G27U U38G G40U, 0.03; in that of C10G G22U A25C, 0.09.

For the variant G1C G2A A16U C37G U38C, the self-cleavage was 0.01. As for C8A A11G A14G G40A U43G, the self-cleavage is 0.01.

Turning to G5C A14U G21U G30A G36C, the self-cleavage stood at 0. With G5A C23A G36U, the self-cleavage came out at 0.03. In the case of G7A G17C G27A C31U, the self-cleavage stood at 0.05.

Take C13G C18U A26U C31G C46U: the self-cleavage is 0.01. For the variant G1C G2A G5A U20A A39U, the self-cleavage was 0.03.

For the variant G1A G7A C31G, the self-cleavage came to 0.85.

As to A14G C18U A24G G30C U38G C46U, the self-cleavage turned out to be 0.02. As for C10A G17C A25U G33C, the self-cleavage came out at 0.03.

For C8G G21U G44C C45U, the self-cleavage was found to be 0.08. As for A11G C15U G19A, the self-cleavage was 0.03. In the case of G5C A16C U32A A39G it was 0; in that of G2C C8A A14U C23A U32G U34A G35U, 0.78. In the case of A4U G27C G40U it was 0.07. The same measure for G5A A12G U20A U43C: 0.03; for A4U G33A C46U: 0.05. For G17A G19U A26U G36C A39C, the self-cleavage was 0.03. In the case of G35A G36U C42U C46G, the self-cleavage came out at 0.05. Turning to A14U G27A G29U, the self-cleavage is 0.56.

As to G21A A41C U43C G44U, the self-cleavage came to 0.06. As to G2C A14C C18G C46U, the self-cleavage was 0.02. In the case of G5U A14C U28A U32G U34G it was 0.03; in that of G21U U28C G29U C31A C45U, 0.07. Turning to C18G U38C U43A, the self-cleavage is 0.01. Consider C13A A14U G21U A25C U43A, for which the self-cleavage was 0.01. Consider G1U G7C C45A, for which the self-cleavage is 0.02. In the case of G7C G17U G19U A26G C42G it was 0.01; in that of A4C G5U G17C G21U G36C, 0.04. For the variant A16C G27C C37U, the self-cleavage was found to be 0.24. Regarding G2C C18U A25C G36A C42G, the self-cleavage stood at 0.09. On to G7C C15A C18U U20A U32A A41U C45G, for which the self-cleavage was 0.01. In the case of C10G G17C C18U G19U C31G, the self-cleavage was 0. For the variant G21A G22A C23U G36C, the self-cleavage stood at 0.51. In the case of G1C G7C A16U, the self-cleavage was 0.01. In the case of A4C C13A C18U A25U G30A it was 0.09; in that of C3G A39C C45A, 0.06.

Turning to G7U C18A A26G C46U, the self-cleavage is 0.03. In the case of C13A A24U G30U it was 0. A12C A14G G19A: the self-cleavage is 0.

With G1A G19C G21U A26C, the self-cleavage was found to be 0.47.

With C8A C15U G17A G35A, the self-cleavage is 0.17. Consider G2C C3A C15A G35C, for which the self-cleavage was 0.05. Turning to A6C G17C G29A, the self-cleavage turned out to be 0.04. Regarding A16C G17A G21C U28C U38A C42U, the self-cleavage came to 0.01. The same measure for G2U G5U C13U: 0.05.

As for U9A C10G G27A G29U G30U, the self-cleavage is 0.03. For G5C A6U G21U A25C, the self-cleavage was 0.03.

As for C3A C10A C31U A39G G40A, the self-cleavage is 0.06. Regarding C10A C42G C46A, the self-cleavage came to 0.02. On to C42U G44C C45U, for which the self-cleavage was determined as 0.13. Regarding C8U A11U U38G C46A, the self-cleavage came to 0.02. In the case of A14C G21U G22U, the self-cleavage is 0.13.

On to C18U G19A G36A C42U U43A, for which the self-cleavage came out at 0.01. For the variant C8A C10A C23A, the self-cleavage came out at 0.02. As for A6C A14U G30C, the self-cleavage was 0.07. In the case of G17C G35A A39C G44C it was 0.02; in that of C10U C13A A26U A41G, 0.02; in that of G2C G7U G33C G40A A41C, 0.07. Take G17A U32A G33C: the self-cleavage worked out at 0.01. In the case of A14G A24G C42G it was 0; in that of G7C A11U A16C G27C, 0.04. In the case of G5C A6C C10U it was 0.05; in that of A12G C15A U28C C42A, 0.02; in that of G5C A12G U34G G44A, 0.02.

As to U9A U43C C46G, the self-cleavage is 0.

Take G5A U9A A11C A14G C46U: the self-cleavage came out at 0.02.

A12G G17A G33C A39C: the self-cleavage is 0. As to C10U G22U C23U A25U, the self-cleavage turned out to be 1.67.

Consider G1U G2U A4C A24G A26C, for which the self-cleavage worked out at 0.06. C18A G19C C31A A39U C42G: the self-cleavage was 0.02. In the case of G1C G2U G7A G21U it was 0.09. Regarding C10U C18U G27U A39U, the self-cleavage was found to be 0.13. Consider G1A G7A C10A G35A, for which the self-cleavage was 0.12.

Regarding G1A A12C A41C, the self-cleavage is 0.04.

In the case of A4C A11G G29A, the self-cleavage worked out at 0.01. Regarding C31A U38A C42U, the self-cleavage is 0.14.

Regarding A11C C18G A25G C46U, the self-cleavage turned out to be 0.02. Regarding C10U C15A A26U G29A C45U, the self-cleavage turned out to be 0.04. G5C U9G C13U U20G C46U: the self-cleavage worked out at 0.03.

With C10A G21A C23U G29C G30C G40U, the self-cleavage was 0.01. With G5U C8G A14G G22U, the self-cleavage was determined as 0.09. For G21C C23U G30A A39G, the self-cleavage was found to be 0.06. For the variant C10U C15A G22U G33A C42U, the self-cleavage stood at 0.03. On to G1U C18A G33U, for which the self-cleavage amounted to 0.02. As to G2C G5C A6U G27A G30U C46U, the self-cleavage worked out at 0.05.

In the case of A11C G21U G30C G36C C37G, the self-cleavage stood at 0.01. Regarding A4C G40A C46U, the self-cleavage was 0.05. Turning to C8A A25U G33U G40A, the self-cleavage came to 0.16. The same measure for G7C C8A C13G G35C C45G C46G: 0.13; for C3A C18G C31A: 0.06. Regarding G1C A12U G30U, the self-cleavage was 0.05. In the case of C8A C23A A25U G30C it was 0.22.

Consider A4C G7A C8U C31A, for which the self-cleavage was found to be 0.35. A12C C18G G44U: the self-cleavage worked out at 0.02.

As for A11U G33C G35A, the self-cleavage was 0. In the case of C3U G5A C18A G19U G22U G27C G29U U43A it was 0.25; in that of G19A C31A A39G, 0.03.

Regarding C13U U34C G40U C45G, the self-cleavage turned out to be 0.18.

As for G1U A16U C23U G40C, the self-cleavage was 0.03. As for C13G C18A U43G, the self-cleavage turned out to be 0.01. For the variant A11C C15A G27U U34C G40U, the self-cleavage came to 0. With C13A C18A G19C, the self-cleavage came out at 0.07.

As to G22C U38G U43C, the self-cleavage turned out to be 0.

Regarding G1C G5U U34G G44U, the self-cleavage stood at 0.03. G1U A6U C45G C46U: the self-cleavage came out at 0.18.

Consider A14G G17C C31A G35U A39C, for which the self-cleavage came out at 0. C8U A11G U20G G21U G22A G35C: the self-cleavage is 0.02. Regarding G2U A14U G19U G21U A41C C42A C46A, the self-cleavage stood at 0.05. In the case of U20C A25C G27A G36C it was 0.02; in that of C3U C13G C15A A16G A25U G30A C46G, 0.05. As for G17A A26C G27U C45G, the self-cleavage is 0.05. In the case of G1A C8U C13U G22U U28C it was 1.86. Regarding G2C G33C G40U U43G C46A, the self-cleavage came out at 0.02. C23G C42U C45A: the self-cleavage worked out at 1.03.
